# This is one part of the list. Single values are uncertain, as repeats are few or missing.
# Tests used:
# Test in all cases: cell count relative to DMSO control; melanoma cells; higher = more viable cells
# Conditions in all cases: library dose: low library concentration; 72 h; first compound 0.4 µM
# WM115 = system: WM115
# WM1716 = system: WM1716
# WM1745 = system: WM1745
# WM3526 = system: WM3526
# WM3619 = system: WM3619
# WM451Lu = system: WM451Lu
# 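Also: cell number obtained by counting DAPI-stained nuclei in high-throughput microscope images with image analysis software, screen run in 1,536-well plates.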
compound,measurement,setting,value
CCCCCCCCCCCCCCCCCCOP(=O)([O-])OC1CC[N+](C)(C)CC1 [Perifosine] + O=S(=O)(c1ccccc1)N(CC(F)(F)F)c1ccc(C(O)(C(F)(F)F)C(F)(F)F)cc1 [T0901317] (partner dose 1.4 µM),cell count,WM115,92.9%
same,cell count,WM1716,86.5%
same,cell count,WM1745,84.4%
same,cell count,WM3526,86.4%
same,cell count,WM3619,96.4%
same,cell count,WM451Lu,81.2%
Cn1sc(=O)n(Cc2ccccc2)c1=O + CS(=O)(=O)c1ccc(C(=O)Nc2ccc(Cl)c(-c3ccccn3)c2)c(Cl)c1 [vismodegib] (partner dose 1 µM),cell count,WM115,95.4%
same,cell count,WM1716,96.7%
same,cell count,WM1745,94.1%
same,cell count,WM3526,109%
same,cell count,WM3619,105%
same,cell count,WM451Lu,107%
C[C@@H](N)c1ccc(C(=O)Nc2ccnc3[nH]ccc23)cc1 + Oc1nc(-c2ccc(C(F)(F)F)cc2)nc2c1CSCC2 [XAV939] (partner dose 2 µM),cell count,WM115,110%
same,cell count,WM1716,52.9%
same,cell count,WM1745,50.6%
same,cell count,WM3526,101%
same,cell count,WM3619,134%
same,cell count,WM451Lu,94.5%
Cn1sc(=O)n(Cc2ccccc2)c1=O + CS(=O)(=O)CCNCc1ccc(-c2ccc3ncnc(Nc4ccc(OCc5cccc(F)c5)c(Cl)c4)c3c2)o1 [lapatinib] (partner dose 0.8 µM),cell count,WM115,98.8%
same,cell count,WM1716,98.5%
same,cell count,WM1745,98.2%
same,cell count,WM3526,107%
same,cell count,WM3619,77.4%
same,cell count,WM451Lu,97.3%
CCCCCCCCCCCCCCCCCCOP(=O)([O-])OC1CC[N+](C)(C)CC1 [Perifosine] + CC(C)C[C@H](NC(=O)[C@H](Cc1ccccc1)NC(=O)c1cnccn1)B(O)O [Bortezomib] (partner dose 0.001 µM),cell count,WM115,105%
same,cell count,WM1716,73.3%
same,cell count,WM1745,79.6%
same,cell count,WM3526,72.7%
same,cell count,WM3619,73.6%
same,cell count,WM451Lu,99.1%
Cn1sc(=O)n(Cc2ccccc2)c1=O + NCC(=O)Nc1ccc(-n2nc(C(F)(F)F)cc2-c2ccc3c(ccc4ccccc43)c2)cc1 [OSU03012] (partner dose 1 µM),cell count,WM115,76.9%
same,cell count,WM1716,94.3%
same,cell count,WM1745,94.3%
same,cell count,WM3526,52.6%
same,cell count,WM3619,104%
same,cell count,WM451Lu,57.8%
CCCCCCCCCCCCCCCCCCOP(=O)([O-])OC1CC[N+](C)(C)CC1 [Perifosine] + NC(=O)c1ccc(N(C(N)=O)c2c(F)cccc2F)nc1-c1ccc(F)cc1F [VX702] (partner dose 0.4 µM),cell count,WM115,97.1%
same,cell count,WM1716,97.3%
same,cell count,WM1745,77.9%
same,cell count,WM3526,97.1%
same,cell count,WM3619,88.6%
same,cell count,WM451Lu,102%
CCCCCCCCCCCCCCCCCCOP(=O)([O-])OC1CC[N+](C)(C)CC1 [Perifosine] + NCC(=O)Nc1ccc(-n2nc(C(F)(F)F)cc2-c2ccc3c(ccc4ccccc43)c2)cc1 [OSU03012] (partner dose 1 µM),cell count,WM115,83.1%
same,cell count,WM1716,99.6%
same,cell count,WM1745,119%
same,cell count,WM3526,50.8%
same,cell count,WM3619,114%
same,cell count,WM451Lu,61.7%
C[C@@H](N)c1ccc(C(=O)Nc2ccnc3[nH]ccc23)cc1 + O=C(O)[C@@H]1[O][Sb](=[O])([O][Sb]2(=[O])[O][C@H]([C@H](O)CO)[C@H](O)[C@H](C(=O)O)[O]2)[O][C@H]([C@H](O)CO)[C@@H]1O [stibogluconate] (partner dose 2 µM),cell count,WM115,104%
same,cell count,WM1716,68%
same,cell count,WM1745,75.9%
same,cell count,WM3526,109%
same,cell count,WM3619,131%
same,cell count,WM451Lu,106%
Cn1sc(=O)n(Cc2ccccc2)c1=O + COc1ccc(COc2ccc(Cc3cnc(N)nc3N)cc2OC)cc1 [GW2580] (partner dose 1 µM),cell count,WM115,84.9%
same,cell count,WM1716,104%
same,cell count,WM1745,92.1%
same,cell count,WM3526,111%
same,cell count,WM3619,113%
same,cell count,WM451Lu,93.6%
C[C@@H](N)c1ccc(C(=O)Nc2ccnc3[nH]ccc23)cc1 + CNC(=O)c1cc(Oc2ccc(NC(=O)Nc3ccc(Cl)c(C(F)(F)F)c3)cc2)ccn1 [sorafenib] (partner dose 0.4 µM),cell count,WM115,114%
same,cell count,WM1716,77.6%
same,cell count,WM1745,72%
same,cell count,WM3526,109%
same,cell count,WM3619,93.7%
same,cell count,WM451Lu,103%
CCCCCCCCCCCCCCCCCCOP(=O)([O-])OC1CC[N+](C)(C)CC1 [Perifosine] + C=CCNC1=C2C[C@@H](C)C[C@H](OC)[C@H](O)[C@@H](C)/C=C(\C)[C@H](OC(N)=O)[C@@H](OC)/C=C\C=C(/C)C(=O)NC(=CC1=O)C2=O [Tanespimycin] (partner dose 0.002 µM),cell count,WM115,89.7%
same,cell count,WM1716,94.3%
same,cell count,WM1745,81.1%
same,cell count,WM3526,91.4%
same,cell count,WM3619,97%
same,cell count,WM451Lu,107%
Cn1sc(=O)n(Cc2ccccc2)c1=O + Nc1ncn([C@H]2C[C@H](O)[C@@H](CO)O2)c(=O)n1 [decitabine] (partner dose 0.1 µM),cell count,WM115,92.6%
same,cell count,WM1716,92.2%
same,cell count,WM1745,90%
same,cell count,WM3526,111%
same,cell count,WM3619,84.5%
same,cell count,WM451Lu,95.2%
CCCCCCCCCCCCCCCCCCOP(=O)([O-])OC1CC[N+](C)(C)CC1 [Perifosine] + O=C(/C=C/c1cccnc1)NCCCCC1CCN(C(=O)c2ccccc2)CC1 [FK866] (partner dose 0.01 µM),cell count,WM115,94.4%
same,cell count,WM1716,90.3%
same,cell count,WM1745,102%
same,cell count,WM3526,98.3%
same,cell count,WM3619,83.2%
same,cell count,WM451Lu,80.2%
Cn1sc(=O)n(Cc2ccccc2)c1=O + CC(C)(C)c1cnc(CSc2cnc(NC(=O)C3CCNCC3)s2)o1 [SNS-032] (partner dose 0.01 µM),cell count,WM115,80.6%
same,cell count,WM1716,92.2%
same,cell count,WM1745,102%
same,cell count,WM3526,76.5%
same,cell count,WM3619,104%
same,cell count,WM451Lu,95.3%
C[C@@H](N)c1ccc(C(=O)Nc2ccnc3[nH]ccc23)cc1 + OCc1c[nH]c2ccccc12 [Indole-3-carbinol] (partner dose 0.8 µM),cell count,WM115,92.6%
same,cell count,WM1716,61.5%
same,cell count,WM1745,66.2%
same,cell count,WM3526,93.8%
same,cell count,WM3619,90.3%
same,cell count,WM451Lu,79.2%
C[C@@H](N)c1ccc(C(=O)Nc2ccnc3[nH]ccc23)cc1 + Cc1nc(Nc2ncc(C(=O)Nc3c(C)cccc3Cl)s2)cc(N2CCN(CCO)CC2)n1 [dasatanib] (partner dose 0.004 µM),cell count,WM115,93.1%
same,cell count,WM1716,50%
same,cell count,WM1745,46.3%
same,cell count,WM3526,93.8%
same,cell count,WM3619,78.4%
same,cell count,WM451Lu,84.9%
Cn1sc(=O)n(Cc2ccccc2)c1=O + CC(C)C[C@H](NC(=O)[C@H](Cc1ccccc1)NC(=O)c1cnccn1)B(O)O [Bortezomib] (partner dose 0.001 µM),cell count,WM115,98.5%
same,cell count,WM1716,75.1%
same,cell count,WM1745,100%
same,cell count,WM3526,85.2%
same,cell count,WM3619,84.3%
same,cell count,WM451Lu,81.1%
Cn1sc(=O)n(Cc2ccccc2)c1=O + CCN(CC)CCCCNc1ncc2cc(-c3cc(OC)cc(OC)c3)c(NC(=O)NC(C)(C)C)nc2n1 [PD173074] (partner dose 0.1 µM),cell count,WM115,95.4%
same,cell count,WM1716,98.9%
same,cell count,WM1745,104%
same,cell count,WM3526,88.6%
same,cell count,WM3619,89.7%
same,cell count,WM451Lu,96.3%
Cn1sc(=O)n(Cc2ccccc2)c1=O + CO[C@H]1C[C@@H]2CC[C@@H](C)[C@@](O)(O2)C(=O)C(=O)N2CCCC[C@H]2C(=O)O[C@H]([C@H](C)C[C@@H]2CC[C@@H](OCCO)[C@H](OC)C2)CC(=O)[C@H](C)/C=C(\C)[C@@H](O)[C@@H](OC)C(=O)[C@H](C)C[C@H](C)/C=C/C=C/C=C/1C [everolimus] (partner dose 0.02 µM),cell count,WM115,81.7%
same,cell count,WM1716,90.8%
same,cell count,WM1745,88.9%
same,cell count,WM3526,82.3%
same,cell count,WM3619,77%
same,cell count,WM451Lu,91.6%
C[C@@H](N)c1ccc(C(=O)Nc2ccnc3[nH]ccc23)cc1 + O=C(CCCCCCC(=O)Nc1ccccc1)NO [vorinostat] (partner dose 0.08 µM),cell count,WM115,128%
same,cell count,WM1716,69.9%
same,cell count,WM1745,97.8%
same,cell count,WM3526,107%
same,cell count,WM3619,92.3%
same,cell count,WM451Lu,79.2%
C[C@@H](N)c1ccc(C(=O)Nc2ccnc3[nH]ccc23)cc1 + COc1cc(Nc2ncc(F)c(Nc3ccc4c(n3)NC(=O)C(C)(C)O4)n2)cc(OC)c1OC [Tamatinib] (partner dose 0.4 µM),cell count,WM115,89.4%
same,cell count,WM1716,64.3%
same,cell count,WM1745,35.9%
same,cell count,WM3526,80.5%
same,cell count,WM3619,174%
same,cell count,WM451Lu,66.9%
CCCCCCCCCCCCCCCCCCOP(=O)([O-])OC1CC[N+](C)(C)CC1 [Perifosine] + O=c1[nH]nc(Sc2ncc([N+](=O)[O-])s2)n1-c1ccc2c(c1)OCCO2 [BI78D3] (partner dose 0.2 µM),cell count,WM115,112%
same,cell count,WM1716,109%
same,cell count,WM1745,99.3%
same,cell count,WM3526,109%
same,cell count,WM3619,109%
same,cell count,WM451Lu,94.2%
C[C@@H](N)c1ccc(C(=O)Nc2ccnc3[nH]ccc23)cc1 + CC(=O)c1c(C)c2cnc(Nc3ccc(N4CCNCC4)cn3)nc2n(C2CCCC2)c1=O [palbociclib] (partner dose 0.04 µM),cell count,WM115,87.6%
same,cell count,WM1716,59.5%
same,cell count,WM1745,75.8%
same,cell count,WM3526,70.3%
same,cell count,WM3619,60.3%
same,cell count,WM451Lu,70.6%
C[C@@H](N)c1ccc(C(=O)Nc2ccnc3[nH]ccc23)cc1 + Cn1nnc2c(C(N)=O)ncn2c1=O [temozolomide] (partner dose 2 µM),cell count,WM115,112%
same,cell count,WM1716,61.6%
same,cell count,WM1745,72.7%
same,cell count,WM3526,119%
same,cell count,WM3619,87%
same,cell count,WM451Lu,98.8%
C[C@@H](N)c1ccc(C(=O)Nc2ccnc3[nH]ccc23)cc1 + CC(=O)O[C@@]12CO[C@@H]1C[C@H](O)[C@@]1(C)C(=O)[C@H](O)C3=C(C)[C@@H](OC(=O)[C@H](O)[C@@H](NC(=O)OC(C)(C)C)c4ccccc4)C[C@@](O)([C@@H](OC(=O)c4ccccc4)[C@H]21)C3(C)C [Docetaxel] (partner dose 0.0001 µM),cell count,WM115,65.8%
same,cell count,WM1716,33.4%
same,cell count,WM1745,56.1%
same,cell count,WM3526,51.4%
same,cell count,WM3619,64.5%
same,cell count,WM451Lu,62.2%
Cn1sc(=O)n(Cc2ccccc2)c1=O + Cc1cc(Nc2cc(N3CCN(C)CC3)nc(/C=C/c3ccccc3)n2)n[nH]1 [ENMD2076] (partner dose 0.04 µM),cell count,WM115,102%
same,cell count,WM1716,96.3%
same,cell count,WM1745,118%
same,cell count,WM3526,92.4%
same,cell count,WM3619,90.3%
same,cell count,WM451Lu,93.7%
CCCCCCCCCCCCCCCCCCOP(=O)([O-])OC1CC[N+](C)(C)CC1 [Perifosine] + CO[C@@H]1[C@H](N(C)C(=O)c2ccccc2)C[C@H]2O[C@]1(C)n1c3ccccc3c3c4c(c5c6ccccc6n2c5c31)C(=O)NC4 [Midostaurin] (partner dose 0.08 µM),cell count,WM115,71%
same,cell count,WM1716,27.5%
same,cell count,WM1745,98.3%
same,cell count,WM3526,90.5%
same,cell count,WM3619,115%
same,cell count,WM451Lu,98.2%
CCCCCCCCCCCCCCCCCCOP(=O)([O-])OC1CC[N+](C)(C)CC1 [Perifosine] + COc1cc2ncnc(Nc3ccc(Oc4ccccc4)cc3)c2cc1OC [SrcI1] (partner dose 2 µM),cell count,WM115,83.1%
same,cell count,WM1716,107%
same,cell count,WM1745,100%
same,cell count,WM3526,78.2%
same,cell count,WM3619,131%
same,cell count,WM451Lu,89%

# — the supplement of paper PMC4604168 (melanoma cell lines)
